From the supplement of paper PMC4604168 (melanoma cell lines)
The list shows a part of the results. Most values come without repeats; read them as rough.

Tested on: WM1716
Assay: cell count relative to DMSO control; melanoma cells; higher = more viable cells
Settings: library dose: low library concentration; 72 h
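Note: cell number obtained by counting DAPI-stained nuclei in high-throughput microscope images with image analysis software, screen run in 1,536-well plates.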

| SMILES | cell count |
| --- | --- |
| CO[C@@H]1[C@H](N(C)C(=O)c2ccccc2)C[C@H]2O[C@]1(C)n1c3ccccc3c3c4c(c5c6ccccc6n2c5c31)C(=O)NC4 [Midostaurin] + CN(NC(=O)CC(=O)NN(C)C(=S)c1ccccc1)C(=S)c1ccccc1 [STA4783] (first compound 0.08 µM, partner dose 0.006 µM) | 61.9% |
| NC(=O)Nc1cc(-c2cccc(F)c2)sc1C(=O)N[C@H]1CCCNC1 + CCc1ccc(CCOc2ccc(CC3SC(=O)NC3=O)cc2)nc1 [pioglitazone] (first compound 0.02 µM, partner dose 2 µM) | 103% |
| CN(C)S(=O)(=O)c1ccc2c(c1)/C(=C/c1cc3c([nH]1)CCCC3)C(=O)N2 + CC(C)CCN1c2nc(Nc3cc(F)c(O)c(F)c3)ncc2N(C)C(=O)C1C [BID1870] (first compound 0.4 µM, partner dose 0.2 µM) | 114% |
| C=CCn1c(=O)c2cnc(Nc3ccc(N4CCN(C)CC4)cc3)nc2n1-c1cccc(C(C)(C)O)n1 + CCCCCCCCCCCC1=C(O)C(=O)C=C(O)C1=O [Embelin] (first compound 0.02 µM, partner dose 1.2 µM) | 85.6% |
| CO[C@@H]1[C@H](N(C)C(=O)c2ccccc2)C[C@H]2O[C@]1(C)n1c3ccccc3c3c4c(c5c6ccccc6n2c5c31)C(=O)NC4 [Midostaurin] + CCN(CC)CCCCNc1ncc2cc(-c3cc(OC)cc(OC)c3)c(NC(=O)NC(C)(C)C)nc2n1 [PD173074] (first compound 0.08 µM, partner dose 0.1 µM) | 85.6% |
| CO[C@@H]1[C@H](N(C)C(=O)c2ccccc2)C[C@H]2O[C@]1(C)n1c3ccccc3c3c4c(c5c6ccccc6n2c5c31)C(=O)NC4 [Midostaurin] + O=C1NC(=O)/C(=C/c2ccc(-c3ccc(F)cc3O)o2)S1 [AS252424] (first compound 0.08 µM, partner dose 1 µM) | 74.5% |
| OCCn1cc(-c2cnc3nnn(Cc4ccc5ncccc5c4)c3n2)cn1 + CCc1ccc(CCOc2ccc(CC3SC(=O)NC3=O)cc2)nc1 [pioglitazone] (first compound 1 µM, partner dose 2 µM) | 89.1% |
| C[C@]1(c2nc3c(C(N)=O)cccc3[nH]2)CCCN1 [Veliparib] + CC1(C)NC(=O)N(c2ccc([N+](=O)[O-])c(C(F)(F)F)c2)C1=O [nilutamide] (first compound 1.4 µM, partner dose 1 µM) | 83.3% |
| Cc1nc(Nc2ncc(C(=O)Nc3c(C)cccc3Cl)s2)cc(N2CCN(CCO)CC2)n1 [dasatanib] + COc1cc(Nc2ncc(F)c(Nc3ccc4c(n3)NC(=O)C(C)(C)O4)n2)cc(OC)c1OC [Tamatinib] (first compound 0.004 µM, partner dose 0.4 µM) | 56.2% |
| CN(C)S(=O)(=O)c1ccc2c(c1)/C(=C/c1cc3c([nH]1)CCCC3)C(=O)N2 + COC(=O)c1sccc1S(=O)(=O)Nc1ccc(Nc2ccccc2)cc1OC [GSK0660] (first compound 0.4 µM, partner dose 1 µM) | 116% |
| CN(C)S(=O)(=O)c1ccc2c(c1)/C(=C/c1cc3c([nH]1)CCCC3)C(=O)N2 + NCC(=O)Nc1ccc(-n2nc(C(F)(F)F)cc2-c2ccc3c(ccc4ccccc43)c2)cc1 [OSU03012] (first compound 0.4 µM, partner dose 1 µM) | 86% |
